Some of the results follow.

One experiment concerns HSkMC. In words: cytotoxicity call (relative viability < 0.9). The following applies: 10 µM.
Another experiment has as its system HepG2. In words: cytotoxicity call (relative viability < 0.9). The following applies: 10 µM.
The next experiment concerns S. aureus RN4220. In words: growth inhibition call (relative growth <= 0.2). The following applies: 50 µM.

Consider `COCC(=O)N(C)C[C@H]1Oc2cc(C#CCN(C)C)ccc2S(=O)(=O)N([C@@H](C)CO)C[C@@H]1C`, for which the cytotoxicity call in the experiment on HSkMC and in the experiment on HepG2 was “inactive” each time. Besides, the growth inhibition call in the experiment on S. aureus RN4220 is “inactive”.

Turning to `C[C@H](CO)N1C[C@H](C)[C@@H](CN(C)Cc2ccc(Cl)c(Cl)c2)OCCCC[C@H](C)Oc2ccc(NS(C)(=O)=O)cc2C1=O`, the cytotoxicity call in the experiment with HSkMC and in the experiment on HepG2 was “inactive” each time. In the experiment on S. aureus RN4220, the growth inhibition call is “inactive”.

As for `C[C@@H]1CN([C@@H](C)CO)C(=O)c2cc(NC(=O)NC3CCCCC3)ccc2O[C@@H](C)CCCCO[C@H]1CN(C)Cc1ccc(C(=O)Nc2ccccc2N)cc1`, the cytotoxicity call in the experiment on HSkMC and in the experiment on HepG2 was “inactive” each time. For the same compound, the growth inhibition call with S. aureus RN4220 is “inactive”.

In the case of `N[C@H](C(=O)O)[C@@H]1CC(Cl)=NO1`, the cytotoxicity call in the experiment with HSkMC is “inactive”. Further, the cytotoxicity call in the experiment on HepG2 is “active”. The growth inhibition call with S. aureus RN4220 is “inactive”.

As to `C[C@H](CO)N1C[C@H](C)[C@@H](CN(C)C(=O)Nc2ccc(C(F)(F)F)cc2)Oc2ccc(NC(=O)Nc3ccc4c(c3)OCO4)cc2C1=O`, the cytotoxicity call in the experiment on HSkMC and in the experiment with HepG2 was “inactive” in each case. Besides, in the experiment with S. aureus RN4220, the growth inhibition call is “inactive”.

Regarding `CC(=O)OC1CCC2(C)C(=CCC3C2CCC2(C)C(C(C)CCCC(C)C)CCC32)C1` (stereo unspecified), the cytotoxicity call in the experiment with HSkMC and with HepG2 was “inactive” each time. In addition, the growth inhibition call in the experiment with S. aureus RN4220 is “inactive”.

As for `CN(C)C(=O)c1cccc(-c2cccc(-c3nc(C(=O)NC4CCCCC4)cc4c3[C@@H](CCO)N([S@](=O)C(C)(C)C)C4)c2)c1`, the cytotoxicity call in the experiment on HSkMC and with HepG2 was “inactive” in each case. Also, the growth inhibition call in the experiment on S. aureus RN4220 was “inactive”.

Take `C[C@H](CO)N1C[C@H](C)[C@H](CN(C)C(=O)Nc2ccc(C(F)(F)F)cc2)OCCCC[C@H](C)Oc2ccc(NS(C)(=O)=O)cc2C1=O`: the cytotoxicity call with HSkMC and in the experiment on HepG2 was “inactive” each time. In addition, the growth inhibition call in the experiment with S. aureus RN4220 is “inactive”.

Regarding `C[C@@]1(O)CCOC(=O)C1`, the cytotoxicity call in the experiment on HSkMC and with HepG2 was “inactive” each time. Further, the growth inhibition call in the experiment on S. aureus RN4220 is “inactive”.

Turning to `Cc1noc(C)c1S(=O)(=O)Nc1ccc2c(c1)C(=O)N([C@@H](C)CO)C[C@@H](C)[C@@H](CN(C)Cc1ccc(Cl)c(Cl)c1)OCCCC[C@@H](C)O2`, the cytotoxicity call in the experiment with HSkMC and in the experiment on HepG2 was “inactive” throughout. Moreover, the growth inhibition call in the experiment on S. aureus RN4220 was “inactive”.

With `Cc1ccc(S(=O)(=O)Nc2ccc3c(c2)C(=O)N([C@@H](C)CO)C[C@@H](C)[C@@H](CN(C)C(=O)Nc2ccccc2)OCCCC[C@@H](C)O3)cc1`, the cytotoxicity call in the experiment on HSkMC and with HepG2 was “inactive” each time. Also, the growth inhibition call in the experiment on S. aureus RN4220 is “inactive”.

`CCS(=O)(=O)Nc1ccc2c(c1)C(=O)N(C)[C@@H]1CC[C@H](CC(=O)N[C@@H]3CCN(Cc4ccccc4)C3)O[C@H]1CO2`: the cytotoxicity call with HSkMC and in the experiment on HepG2 was “inactive” throughout. In the experiment with S. aureus RN4220, the growth inhibition call was “inactive”.

Consider `O=C(C[C@@H]1CC[C@@H](NC(=O)Cc2ccccn2)[C@H](CO)O1)NCCc1ccncc1`, for which the cytotoxicity call in the experiment on HSkMC and in the experiment on HepG2 was “inactive” each time. For the same compound, in the experiment with S. aureus RN4220, the growth inhibition call was “inactive”.

As for `C[C@@H]1CCCCO[C@H](CN(C)C(=O)NC2CCCCC2)[C@@H](C)CN([C@@H](C)CO)C(=O)c2cc(NC(=O)NC3CCCCC3)ccc2O1`, the cytotoxicity call in the experiment with HSkMC and in the experiment with HepG2 was “inactive” in each case. For the same compound, in the experiment on S. aureus RN4220, the growth inhibition call was “inactive”.

Turning to `COc1ccc(C#Cc2ccc([C@@H]3[C@@H](CO)N4CCCCN(S(=O)(=O)c5cn(C)cn5)C[C@@H]34)cc2)cc1`, in the experiment with HSkMC, the cytotoxicity call was “active”. The cytotoxicity call with HepG2 is “inactive”. In addition, the growth inhibition call with S. aureus RN4220 was “inactive”.

Regarding `O=c1[nH]c2ccccc2c2ccccc12`, the cytotoxicity call in the experiment with HSkMC and in the experiment on HepG2 was “inactive” each time. Besides, in the experiment on S. aureus RN4220, the growth inhibition call is “inactive”.

Consider `CC(C)(CN)CN1CCCCCC1`, for which the cytotoxicity call in the experiment with HSkMC and with HepG2 was “inactive” in each case. Moreover, the growth inhibition call in the experiment with S. aureus RN4220 is “inactive”.

`C[C@H](CO)N1C[C@H](C)[C@H](CN(C)Cc2ccc3c(c2)OCO3)Oc2ccc(NC(=O)c3ccncc3)cc2CC1=O`: the cytotoxicity call with HSkMC and in the experiment on HepG2 was “inactive” in each case. The growth inhibition call in the experiment on S. aureus RN4220 is “inactive”.

On to `Cc1noc(C)c1NC(=O)Nc1ccc2c(c1)C(=O)N([C@H](C)CO)C[C@H](C)[C@@H](CN(C)Cc1ccccc1)OCCCC[C@@H](C)O2`, for which the cytotoxicity call in the experiment with HSkMC and with HepG2 was “inactive” in each case. Also, the growth inhibition call with S. aureus RN4220 was “inactive”.

For `COc1ccc(NC(=O)Nc2ccc3c(c2)CC(=O)N([C@H](C)CO)C[C@H](C)[C@H](CN(C)S(=O)(=O)c2cn(C)cn2)O3)cc1`, the cytotoxicity call in the experiment with HSkMC and in the experiment on HepG2 was “inactive” in each case. In addition, the growth inhibition call in the experiment with S. aureus RN4220 is “inactive”.

Regarding `O=C(CCCCCNC(=O)OCc1ccc(CO[C@H]2C[C@@H](c3csc4ccccc34)C=C(C(=O)N3CCN(Cc4ccc5c(c4)OCO5)CC3)O2)cc1)NO`, the cytotoxicity call with HSkMC and in the experiment on HepG2 was “inactive” throughout. Besides, the growth inhibition call in the experiment on S. aureus RN4220 is “inactive”.

In the case of `C[C@@H]1CN([C@H](C)CO)C(=O)c2cccc(NC(=O)Nc3ccc4c(c3)OCO4)c2O[C@@H]1CN(C)S(C)(=O)=O`, the cytotoxicity call in the experiment with HSkMC and in the experiment on HepG2 was “inactive” each time. Also, in the experiment with S. aureus RN4220, the growth inhibition call was “inactive”.

Turning to `CNC[C@@H]1Oc2c(NS(=O)(=O)c3cn(C)cn3)cccc2C(=O)N([C@@H](C)CO)C[C@H]1C`, the cytotoxicity call in the experiment on HSkMC and with HepG2 was “inactive” each time. Moreover, in the experiment on S. aureus RN4220, the growth inhibition call is “inactive”.

In the case of `C/C=C/c1ccc([C@H]2[C@@H](CO)N(S(=O)(=O)Cc3ccccc3)C23CN(C(=O)C2CCOCC2)C3)cc1`, the cytotoxicity call with HSkMC and in the experiment on HepG2 was “inactive” each time. Further, the growth inhibition call in the experiment with S. aureus RN4220 was “inactive”.

Take `C[C@@H]1CN([C@@H](C)CO)C(=O)c2c(c3ccccc3n2C)-c2ccccc2CO[C@H]1CN(C)Cc1cccc(C(=O)O)c1`: the cytotoxicity call with HSkMC and in the experiment with HepG2 was “inactive” throughout. For the same compound, the growth inhibition call with S. aureus RN4220 was “inactive”.

Regarding `CC(C)NC(=O)Nc1ccc2c(c1)C(=O)N([C@H](C)CO)C[C@H](C)[C@@H](CN(C)C(=O)Nc1ccc(C(F)(F)F)cc1)OCCCC[C@H](C)O2`, the cytotoxicity call in the experiment on HSkMC and with HepG2 was “inactive” throughout. Moreover, the growth inhibition call in the experiment with S. aureus RN4220 is “inactive”.

`C[C@H](CO)N1C[C@H](C)[C@H](CN(C)C(=O)Nc2ccc(C(F)(F)F)cc2)Oc2ccc(NS(C)(=O)=O)cc2C1=O`: the cytotoxicity call in the experiment on HSkMC (human skeletal muscle cells) and in the experiment with HepG2 was “inactive” each time. Further, the growth inhibition call in the experiment on S. aureus RN4220 is “inactive”.

These data come from the antibiotic and cytotoxicity screens of Wong et al. (2023).
